US20150017651

Target: Gli1 (wild-type, full-length) (UniProt P08151)
Chain of UniProt P08151 (P08151 whole entry): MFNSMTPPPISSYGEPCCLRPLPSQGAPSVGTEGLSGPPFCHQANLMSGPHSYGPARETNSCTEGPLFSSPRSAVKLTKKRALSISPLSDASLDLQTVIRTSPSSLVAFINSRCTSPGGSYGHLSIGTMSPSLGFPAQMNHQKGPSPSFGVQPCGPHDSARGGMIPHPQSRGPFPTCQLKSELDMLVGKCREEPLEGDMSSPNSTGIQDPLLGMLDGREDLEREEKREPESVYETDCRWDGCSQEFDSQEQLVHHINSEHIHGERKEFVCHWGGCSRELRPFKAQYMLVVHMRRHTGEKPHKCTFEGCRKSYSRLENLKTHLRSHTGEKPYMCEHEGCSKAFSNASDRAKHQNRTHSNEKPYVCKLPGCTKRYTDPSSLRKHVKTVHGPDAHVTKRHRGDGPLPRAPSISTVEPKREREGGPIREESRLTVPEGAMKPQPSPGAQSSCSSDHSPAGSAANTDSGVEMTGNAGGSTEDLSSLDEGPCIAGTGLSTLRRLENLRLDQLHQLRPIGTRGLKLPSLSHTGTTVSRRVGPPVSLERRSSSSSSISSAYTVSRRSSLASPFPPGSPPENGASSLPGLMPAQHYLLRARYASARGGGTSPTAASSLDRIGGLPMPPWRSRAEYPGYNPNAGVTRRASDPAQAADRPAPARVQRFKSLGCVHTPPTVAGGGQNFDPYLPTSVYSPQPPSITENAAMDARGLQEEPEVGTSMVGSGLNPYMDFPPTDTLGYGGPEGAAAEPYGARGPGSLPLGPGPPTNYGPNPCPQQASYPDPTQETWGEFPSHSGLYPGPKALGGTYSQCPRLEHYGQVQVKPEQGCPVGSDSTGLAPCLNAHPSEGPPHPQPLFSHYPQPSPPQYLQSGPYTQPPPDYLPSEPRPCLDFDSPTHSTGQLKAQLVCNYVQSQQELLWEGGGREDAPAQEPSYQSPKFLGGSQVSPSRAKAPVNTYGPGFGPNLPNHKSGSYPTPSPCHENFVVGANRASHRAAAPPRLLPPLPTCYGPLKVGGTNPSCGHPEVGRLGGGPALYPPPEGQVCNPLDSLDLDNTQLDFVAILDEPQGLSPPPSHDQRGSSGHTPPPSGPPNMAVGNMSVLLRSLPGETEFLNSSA

HA-tagged loss-of-function S6K1T389A (no sequence given)
serine/threonine phosphorylation of immunoprecipitated endogenous Gli1 (Western blot): serine/threonine phosphorylation of Gli1 was observed with the ectopic expression of S6K1 or S6K1T389E (FIG. 3A), but neither S6K1T389A nor S6K1K100R
